According to the supplement of paper PMC3334620:
Whole data set: some 33,000 sequences, median “E-score (-0.5 to 0.5)” near -0.017, cut for the highest 2% near 0.3. Some of the results follow.

What follows are sequences tested against T1, Sut1 (UniProt P53032) (assay: PBM E-score (8-mer binding enrichment) (E-score (-0.5 to 0.5)); higher = stronger / more preferred TF binding; most listed sequences are background and not binding sites). Details: protein concentration: 200 nM; construct: GST-full length.
T1 sequence: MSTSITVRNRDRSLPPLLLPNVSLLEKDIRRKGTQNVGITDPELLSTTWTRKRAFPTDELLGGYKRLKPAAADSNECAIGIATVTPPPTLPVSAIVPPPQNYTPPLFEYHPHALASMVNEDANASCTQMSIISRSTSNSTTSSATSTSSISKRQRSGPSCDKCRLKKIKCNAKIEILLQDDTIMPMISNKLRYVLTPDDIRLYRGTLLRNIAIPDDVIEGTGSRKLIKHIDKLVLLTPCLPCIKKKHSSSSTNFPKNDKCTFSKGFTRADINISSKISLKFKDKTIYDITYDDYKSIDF
Summary of the method: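 Full-length yeast transcription factors or their DNA-binding domains, GST-tagged and expressed with PURExpress, were applied at about 100-200 nM to universal all-10-mer Agilent arrays. These arrays had been made double-stranded by primer extension on fresh or once-stripped slides. Detection used fluorescent anti-GST, normalisation used masliner, and E-scores for ungapped eight-base words pooled with reverse complements came from the Universal PBM Analysis Suite.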

Sequence	PBM E-score
CCTCTGCC	-0.231
AATGCCCG	-0.158
AAGCACCA	-0.0701
AAGCTCGT	-0.0854
ATTCTTTC	0.262
GAGCGAGA	0.202
GACAAGCA	-0.109
CACTGGAA	0.0452
ACTGGAAA	-0.0243
GGCCTGAC	-0.213
ACATTAGG	0.0153
CGAGGGTC	-0.194
GAGGCGAA	-0.0721
CTTGACAA	0.058
ATGTGGGA	-0.0455
GAACATTC	0.0907
GCTGTACA	-0.155
AATTTGCG	0.126
TCACCTGA	-0.165
ATCGATCA	0.0202
ACAGAAGT	-0.00216
CCATGGAC	-0.229
CCGTAAAC	0.0734
GCCAGCCC	-0.278
AGGCGACC	-0.207

Sequence	PBM E-score
GATCATCA	-0.153
CGCCGATA	-0.197
ACGCCTCT	-0.164
ACGAAGGC	-0.338
ATCGCGCG	0.0868
ACCGAAGC	-0.0421
CCGCAGGA	-0.245
CGAGCCTC	-0.129
AAGAAAAA	0.319
ATGACCTG	-0.085
GCGCTGAA	-0.106
ATTACTGA	0.037
CCTCAATA	-0.0482
CTACTGAG	0.028
TCCAAAGA	-0.00733
CGTTGCGA	-0.0552
ACGCACCG	-0.083
GGACTACC	0.207
ACGCCCAC	-0.244
AAGATGTG	-0.0532
TTAGACAA	0.149
GGCGTCTA	-0.125
GGTTGTGA	0.0966
TATCGTGA	0.0374
AAACACCT	-0.0807

Sequence	PBM E-score
AGTTCCAT	0.0714
AGGTGTAC	-0.124
GAGTACCA	0.17
CCTGCTAG	-0.22
AAGGATGC	-0.199
AGGCATTC	-0.125
ACATCTCG	0.0654
ATGCGGTC	0.0607
AATGAGTG	0.0492
CTGATCGC	-0.248
CCATGCGA	0.114
ATCACTAA	0.0894
CCCGCCCC	0.0349
AAGAATCC	0.00906
ACTATGCA	0.0796
TAGCTTAA	-0.00342
GAAGCGCC	0.0753
TAATATAA	0.306
GACGCAAA	-0.0155
GCTGACTA	-0.057
ATGTCTCG	-0.0584
AGAACCTA	-0.0856
CATTTGCA	0.0495
AAGTTGAA	0.0627
CCATACTC	-0.246

Sequence	PBM E-score
ACCATCTA	-0.00802
GCCTATGA	-0.267
AGTTCAAG	0.147
AATCCCTC	-0.132
AGCGCGCA	0.00859
CGAGCTTC	0.165
AATTGAAC	0.0105
GAGCCCCA	-0.14
AGCGGCAA	-0.215
ACTATAGA	0.168
ACCCCTGG	-0.332
CCATACAG	-0.18
GTCACGCA	-0.0816
CACCACTC	0.0323
ACTCACTC	0.135
CAGCAAGC	-0.298
ACCACCGG	0.0681
AATCCAAT	0.0377
GCCATAAA	-0.00966
GGTAAACC	-0.083
GTTATAAC	-0.0927
ATAACTCG	0.149
CCCAAGAA	0.111
GATGGATA	-0.0501
ACCTTACT	0.163

Sequence	PBM E-score
TAAGGCGA	-0.0658
AACAGAGT	-0.014
GTACGTAA	0.0496
AATGCGAA	0.0115
AGTCTCTC	-0.17
GTCTCGAA	-0.159
AAACAATA	0.258
TATCTTGA	0.16
CAGCAAAG	-0.0349
ATTGGCAG	-0.13
ACGCTGCC	-0.224
CAAACACG	-0.0307
GACTAGAC	-0.142
GCCGTTCC	-0.134
TGCGCTAA	0.00494
GTTACGAA	0.171
ACGTGCAA	-0.143
GAAACCAC	0.0155
CAGCCCGC	-0.233
AAATTCTT	0.0691
GGCTCCTA	-0.279
TACAAGGA	0.116
CTTCACCC	0.139
CAGGGGAC	-0.219
CGATGGCG	-0.0469

Sequence	PBM E-score
AATCCGGT	0.258
TATCTGCA	0.064
ACCTCCCG	-0.167
CAAGAGCC	-0.0371
CTTGAACA	0.0785
AAGCCGGA	0.331
AACGTCGC	-0.201
GGTGCATA	-0.18
CTGTAAGC	-0.161
CAAGATCG	0.0609
CTGTGGAA	0.0386
CACTGGGC	-0.0944
GCTAATCC	-0.0586
ATGTAATA	0.307
GCGGACCA	0.175
TTGAGAAA	0.228
TAATGCGA	-0.0147
CTTTCACC	0.127
AGTACACC	0.0346
CGCAGCTA	-0.0718
ATATACCG	0.166
ACAGCTTG	-0.18
CTGCCAGA	-0.113
ACTCCACT	-0.144
ACCGTCCG	0.0131

Sequence	PBM E-score
CCACTCTA	-0.144
GACACTCA	-0.144
AATTTTCA	0.192
CTGCTGGC	-0.272
AAATATTT	0.31
CACACGCA	-0.271
CACACCGG	0.0539
GGTAACAC	0.0853
GGTCCTGA	-0.158
CAGTGGTC	-0.165
CCGGTGCG	0.132
CAGTCACG	-0.15
CCTTATAC	-0.114
CCTGGTAG	-0.308
CAAACCAG	0.0367
CCCGAACC	0.113
CCTAAGCC	-0.144
ATAGCGCA	-0.0575
CGTGTATA	0.14
ACAATCAT	0.182
AGTGAATG	0.13
AAGCGAAG	-0.0381
